Experimental data: the supplement of paper PMC11417369
The other results are listed elsewhere or left out.

What follows are sequences tested on PF3D7_0420300 AP2 domain 1 (GST-tagged) (assay: gcPBM binding intensity (ln(normalized median fluorescence intensity)); higher = stronger DNA binding).
In short: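 An Agilent 4 × 180k array of primer-extended double-stranded 36-bp intergenic genomic probes, with negative controls, was incubated for 1 h with GST-tagged P. falciparum DNA-binding domains expressed in E. coli. Alexa488 anti-GST antibody detected bound protein, scanned at 488 nm. Binding intensity is the highest Masliner-normalised natural-log median intensity across replicate spots of either probe orientation.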

Sequence | gcPBM binding intensity (ln)
GGCAAATTTATTATACCCACATACATACATACATAC [XGTACX_negctrl_site186] | 9.24
AAAATTAAACAAAGTTGTACAAAATAATAATAAAAG [XGTACX_site7515] | 9.56
AAATTAATAAAAAATGGTACACAAAATGGATGTATA [XGTACX_site1561] | 9.34
TTTATATTAATTGATGTGCACTGAAATATTTGTCCA [GTGCAC_site9655] | 9.05
ACCCTATAGGTAACTACACACCGCATATTGTTTACT [CACACA_site7436] | 9.64
ATTAATAATCGAAAGGTGCACTTTGATTTGATAACA | 9.26
TAATTAAAATTATTTATAAATTAGTATATTTCTATA [CACACA_negctrl_site663] | 8.85
TTATTATTTTATCGTAGTACACCTAAATTATAAAAC [XGTACX_site5251] | 8.99
TTACAAAAATTTTGTTCACACATAAAAATATGTTAC [CACACA_site5740] | 9.1
TAATAAATTATTTTTTATTATTTTAATAACACTTCA [CACACA_negctrl_site3] | 9
ATATATTTTTCAAAATGTACAAATAATTAAATACCA [XGTACX_site875] | 9.18
ATATAAAAAAATTGCACACATAAATATATACATATA [CACACA_site1218] | 9.45
GATACATAGAAACACACACACATACATATATACATA [CACACA_site3438] | 10
TTTATGTACAGACATATACACACCTCTATAATATAT [CACACA_site730] | 9.45
TCACAAAAAGAACATTGATATTATTATAAAATCGTC [GTGCAC_negctrl_site177] | 9.17
TATTGTAATATTATATATATCTATTATGTATATAAA [CACACA_negctrl_site454] | 9.02
AATTATATATTAAAAAGTACAAGTTAATATAATATA [XGTACX_site2737] | 9.34
GTAATTAAAATATATACACACAAAGGCTATTAAATA [CACACA_site1011] | 9.67
ATTTATGAAAGAAATAGTACACACATAAACATTTGT [XGTACX_site5862] | 9.63

Sequence | gcPBM binding intensity (ln)
TATATAAAATATTAATGTACATATAAATATATATAT [XGTACX_site6656] | 9.14
TTTAATACGAATGAGGCACACACCTAGTATACATGC [CACACA_site621] | 9.55
TTTAATTTTTTTAAAACACACAAATATATATATATA [CACACA_site3898] | 9.1
CAAAATAATATATATACACACACACCGATATATATA [CACACA_site8082] | 10.2
GTTAGCATATTAAGTTGTACACAATTATTCTTCAAT [XGTACX_site8324] | 9.29
TGGTATTTTGATGATAAAAGGAAATTTTTTTTATAC [XGTACX_negctrl_site111] | 8.85
AACAAAGAAAATACATGTACAAAAAATATTAACGAA [XGTACX_site287] | 9.76
AATATAATATAATGCACACATAAACAAAAAAAAAAA [CACACA_site783] | 9.54
AATCATATTTAGATTACACACAGTTTAAATATTTTA [CACACA_site1263] | 9.29
TATATATATATATATATATATATATATATAATATTA [XGTACX_negctrl_site558] | 8.78
TATTTAAATGGATGCACACATGCATTAAATAAAATA [CACACA_site3433] | 9.1
TGTAATGTTTACAACACACAAATTATAAATACAAAA [CACACA_site5047] | 9.41
TCGATATATAGACACACACACTTTTAATAATTAAAT [CACACA_site7726] | 9.7
TACAAACAGACATATACACACAAAAAAAAAATAAAA [CACACA_site2562] | 9.91
TTATGCAGATAAAAGAGTACATATTCGTTACATACA [XGTACX_site2849] | 9.21
TATATTTTAAAATTATGTACATATATAGATAAATGT [XGTACX_site1349] | 9.09
ATATAAATATAGTGTGCACACACATAATATATATAT [CACACA_site8713] | 9.85
ATATATATATATAATACACACATCATAAAATATGTA [CACACA_site2518] | 9.48
AAAATAAATTGTGAAGGTACACAAATTATTATGTGG [XGTACX_site4196] | 9.19

Sequence | gcPBM binding intensity (ln)
TATCATCATGTATGTACACACATACAGATATTATGT [CACACA_site4888] | 9.48
AAATACAAAATTGTTACACACATATTAATTATGACA [CACACA_site476] | 9.47
GGAAATATAAAATCATGTACATATGTATATATAATT [XGTACX_site5491] | 9.47
ATGAATATATATATTTGTACATATGTATATATATAT [XGTACX_site7527] | 9.19
TATATATTTTTTTCATGTACTTATTATATATATATA [XGTACX_site5321] | 9.34
AGTATAGATGTATACACACACCAAACGTTAAAAAAA [CACACA_site7443] | 9.66
TTTCAAAATTTTTATTTTAAATAAACATTTATAAAA [CACACA_negctrl_site1588] | 8.59
ATTTATTTATTTATATGTACTTAAATGAAAGGAATA [XGTACX_site6024] | 8.96
ATATGGCACATATGTACACACGTATAGATAATATTA [CACACA_site5162] | 9.42
CCGATATAATGGAAAACACACAAAAGATATATATAT [CACACA_site2683] | 9.73
ACATACATTTTTAAATGTACATATATATATATATAT [XGTACX_site6751] | 9.23
AATATTATATGGACGTGTCCACATAAACCTATATAT [XGTACX_site2053] | 9.19
TTAGTAAATACATTTGCACACATTATTTTTTAACAT [CACACA_site5448] | 9.55
TGTAATTGTTTAAAGGGTACATATATCAGATGTCTT [XGTACX_site5877] | 9.13
TGGAAACAATGACACACACACAAAAAAAAAAAAAAA [CACACA_site7494] | 9.68
TTTTGTTTTTGTAGAGTGCATAAAGAAGATATGTAT | 9.1
AAAAATTAAAATATAACTAATTAATTTGTATTCATT [CACACA_negctrl_site1633] | 9.09
TATAAATACTTAGAAACACACAAAAATATTTTATAA [CACACA_site7259] | 9.4
ATAATAATATTTCTATGTACTTATTTTATGTATTAG [XGTACX_site1747] | 9.41
